T1: TLT-1 receptor on the surface of activated human platelets (human, UniProt Q86YW5 16-311)
T1 sequence: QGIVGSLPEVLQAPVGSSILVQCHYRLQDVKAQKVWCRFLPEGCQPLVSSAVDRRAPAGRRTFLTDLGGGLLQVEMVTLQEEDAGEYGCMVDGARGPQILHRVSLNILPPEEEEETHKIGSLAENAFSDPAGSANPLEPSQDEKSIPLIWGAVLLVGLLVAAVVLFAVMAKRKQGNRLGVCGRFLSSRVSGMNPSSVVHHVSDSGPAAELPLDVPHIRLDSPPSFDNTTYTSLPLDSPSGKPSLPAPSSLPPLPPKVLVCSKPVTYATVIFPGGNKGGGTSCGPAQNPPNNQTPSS

B1: mAb 0023-(HC-L4a-TF)2;(LC-HPC4)2 (other)
heavy chain-linker-TF: EVRLVESGGGLVQPGGSLKLSCATSGFTFSDYFMYWIRQTPEKRLEWVAYISNGGDSSSYPDTVKGRFTISRDNAKNTLYLQMSRLKSEDTAMYYCATNKNWDDYYDMDYWGQGTSVTVSSASTKGPSVFPLAPCSRSTSESTAALGCLVKDYFPEPVTVSWNSGALTSGVHTFPAVLQSSGLYSLSSVVTVPSSSLGTKTYTCNVDHKPSNTKVDKRV[human IgG4 Fc with S228P (EU numbers) omitted]GSGGGGSGGGGSGGGGSSGTTNTVAAYNLTWKSTNFKTILEWEPKPVNQVYTVQISTKSGDWKSKCFYTTDTECDLTDEIVKDVKQTYLARVFSYPAGNVESTGSAGEPLYENSPEFTPYLETNLGQPTIQSFEQVGTKVNVTVEDERTLVRRNNTFLSLRDVFGKDLIYTLYYWKSSSSGKKTAKTNTNEFLIDVDKGENYCFSVQAVIPSRTVNRKSTDSPVECMGQEKGEFRE
light chain-HPC4: DIVVSQSPSSLAVSAGEKVTMSCKSSQSLLNSRTRKNYLAWYQQKPGQSPKLLIYWASTRESGVPDRFTGSGSGTDFTLTISSVQAEDLAVYYCKQSYNLLTFGAGTKLELKRTVAAPSVFIFPPSDEQLKSGTASVVCLLNNFYPREAKVQWKVDNALQSGNSQESVTEQDSKDSTYSLSSTLTLSKADYEKHKVYACEVTHQGLSSPVTKSFNRGECEDQVDPRLIDGK
B2: mAb 0051-(LC-L4a-TF)2;HC2 (other)
light chain-linker-TF: SIVMTQTPKFLLVSAGDRVTITCKASQSVSNDVAWYQQKPGQSPKLLINYASSRYTGIPDRFTGSGYGTDFTFTISTVQAEDLAVYFCQQDYSSPYTFGGGTKLEIERTVAAPSVFIFPPSDEQLKSGTASVVCLLNNFYPREAKVQWKVDNALQSGNSQESVTEQDSKDSTYSLSSTLTLSKADYEKHKVYACEVTHQGLSSPVTKSFNRGECGSGGGGSGGGGSGGGGSSGTTNTVAAYNLTWKSTNFKTILEWEPKPVNQVYTVQISTKSGDWKSKCFYTTDTECDLTDEIVKDVKQTYLARVFSYPAGNVESTGSAGEPLYENSPEFTPYLETNLGQPTIQSFEQVGTKVNVTVEDERTLVRRNNTFLSLRDVFGKDLIYTLYYWKSSSSGKKTAKTNTNEFLIDVDKGENYCFSVQAVIPSRTVNRKSTDSPVECMGQEKGEFRE
heavy chain: QVQLEQSGAELVRPGVSVKISCKGSGYTFTDYSMHWVKQSHAKSLEWIGVISTYYGDVRYNQKFKGKATMTVDKSSSTAYMALARLTSEDSAIYYCARAPMITTGAWFAYWGQGTLVTVSAASTKGPSVFPLAPCSRSTSESTAALGCLVKDYFPEPVTVSWNSGALTSGVHTFPAVLQSSGLYSLSSVVTVPSSSLGTKTYTCNVDHKPSNTKVDKRV[human IgG4 Fc with S228P (EU numbers) omitted]
B3: mAb 0052-(LC-L4a-TF)2;HC2 (other)
light chain-linker-TF: DIQMTQTTSSLSASLGDRVTISCRASQDISNYLNWYQQKPDGTVKLLIFYTSRLHSGVPSRFSGSGSGTDYSLTISNLEPEDIATYYCQQDTKLPYTFGGGTKLEMKRTVAAPSVFIFPPSDEQLKSGTASVVCLLNNFYPREAKVQWKVDNALQSGNSQESVTEQDSKDSTYSLSSTLTLSKADYEKHKVYACEVTHQGLSSPVTKSFNRGECGSGGGGSGGGGSGGGGSSGTTNTVAAYNLTWKSTNFKTILEWEPKPVNQVYTVQISTKSGDWKSKCFYTTDTECDLTDEIVKDVKQTYLARVFSYPAGNVESTGSAGEPLYENSPEFTPYLETNLGQPTIQSFEQVGTKVNVTVEDERTLVRRNNTFLSLRDVFGKDLIYTLYYWKSSSSGKKTAKTNTNEFLIDVDKGENYCFSVQAVIPSRTVNRKSTDSPVECMGQEKGEFRE
heavy chain: QVQLQQSGAEPMKPGASVKISCKATGYTFSSHWIEWIKQRPGHGLEWIGEILPGSGNTNYNEKFKGKATFTADTSSNTAYMQLSSLTSEDSAVYCCARGYYGLNYDWYFDVWGAGTTVTVSSASTKGPSVFPLAPCSRSTSESTAALGCLVKDYFPEPVTVSWNSGALTSGVHTFPAVLQSSGLYSLSSVVTVPSSSLGTKTYTCNVDHKPSNTKVDKRV[human IgG4 Fc with S228P (EU numbers) omitted]
B4: mAb 0023-(LC-L4a-TF)2;HC2 (other)
light chain-linker-TF: DIVVSQSPSSLAVSAGEKVTMSCKSSQSLLNSRTRKNYLAWYQQKPGQSPKLLIYWASTRESGVPDRFTGSGSGTDFTLTISSVQAEDLAVYYCKQSYNLLTFGAGTKLELKRTVAAPSVFIFPPSDEQLKSGTASVVCLLNNFYPREAKVQWKVDNALQSGNSQESVTEQDSKDSTYSLSSTLTLSKADYEKHKVYACEVTHQGLSSPVTKSFNRGECGSGGGGSGGGGSGGGGSSGTTNTVAAYNLTWKSTNFKTILEWEPKPVNQVYTVQISTKSGDWKSKCFYTTDTECDLTDEIVKDVKQTYLARVFSYPAGNVESTGSAGEPLYENSPEFTPYLETNLGQPTIQSFEQVGTKVNVTVEDERTLVRRNNTFLSLRDVFGKDLIYTLYYWKSSSSGKKTAKTNTNEFLIDVDKGENYCFSVQAVIPSRTVNRKSTDSPVECMGQEKGEFRE
heavy chain: EVRLVESGGGLVQPGGSLKLSCATSGFTFSDYFMYWIRQTPEKRLEWVAYISNGGDSSSYPDTVKGRFTISRDNAKNTLYLQMSRLKSEDTAMYYCATNKNWDDYYDMDYWGQGTSVTVSSASTKGPSVFPLAPCSRSTSESTAALGCLVKDYFPEPVTVSWNSGALTSGVHTFPAVLQSSGLYSLSSVVTVPSSSLGTKTYTCNVDHKPSNTKVDKRV[human IgG4 Fc with S228P (EU numbers) omitted]
B5: mAb 0012-(TF-L4b-LC)2;HC2 (other)
TF-linker-light chain: SGTTNTVAAYNLTWKSTNFKTILEWEPKPVNQVYTVQISTKSGDWKSKCFYTTDTECDLTDEIVKDVKQTYLARVFSYPAGNVESTGSAGEPLYENSPEFTPYLETNLGQPTIQSFEQVGTKVNVTVEDERTLVRRNNTFLSLRDVFGKDLIYTLYYWKSSSSGKKTAKTNTNEFLIDVDKGENYCFSVQAVIPSRTVNRKSTDSPVECMGQEKGEFREGGGGSGGGGSGGGGSGSMKLPVGLLVLMFWIPASSSDVVMTQTPLSLPVSLGDQASISCRSSQSLVHRNGNTYFHWCLQKPGQSPKLLIYKVSNRFSGVPDRFSGSGSGTDFTLKISRVEAEDLGVYFCSQSTHVPYTFGGGTKLEIKRTVAAPSVFIFPPSDEQLKSGTASVVCLLNNFYPREAKVQWKVDNALQSGNSQESVTEQDSKDSTYSLSSTLTLSKADYEKHKVYACEVTHQGLSSPVTKSFNRGEC
heavy chain: EVKLLESGGGLVQPGGSLKLSCAASGFDFSRYWMTWVRQAPGKGLEWIGEINPDSSTINYTPSLKDKFIISRDNAKNTLYLQMSEVRSEDTALYYCASGVFTSWGQGTLVTVSAASTKGPSVFPLAPCSRSTSESTAALGCLVKDYFPEPVTVSWNSGALTSGVHTFPAVLQSSGLYSLSSVVTVPSSSLGTKTYTCNVDHKPSNTKVDKRV[human IgG4 Fc with S228P (EU numbers) omitted]
B6: mAb 0052-(HC-L4a-TF)2;(LC-HPC4)2 (other)
heavy chain-linker-TF: QVQLQQSGAEPMKPGASVKISCKATGYTFSSHWIEWIKQRPGHGLEWIGEILPGSGNTNYNEKFKGKATFTADTSSNTAYMQLSSLTSEDSAVYCCARGYYGLNYDWYFDVWGAGTTVTVSSASTKGPSVFPLAPCSRSTSESTAALGCLVKDYFPEPVTVSWNSGALTSGVHTFPAVLQSSGLYSLSSVVTVPSSSLGTKTYTCNVDHKPSNTKVDKRV[human IgG4 Fc with S228P (EU numbers) omitted]GSGGGGSGGGGSGGGGSSGTTNTVAAYNLTWKSTNFKTILEWEPKPVNQVYTVQISTKSGDWKSKCFYTTDTECDLTDEIVKDVKQTYLARVFSYPAGNVESTGSAGEPLYENSPEFTPYLETNLGQPTIQSFEQVGTKVNVTVEDERTLVRRNNTFLSLRDVFGKDLIYTLYYWKSSSSGKKTAKTNTNEFLIDVDKGENYCFSVQAVIPSRTVNRKSTDSPVECMGQEKGEFRE
light chain-HPC4: DIQMTQTTSSLSASLGDRVTISCRASQDISNYLNWYQQKPDGTVKLLIFYTSRLHSGVPSRFSGSGSGTDYSLTISNLEPEDIATYYCQQDTKLPYTFGGGTKLEMKRTVAAPSVFIFPPSDEQLKSGTASVVCLLNNFYPREAKVQWKVDNALQSGNSQESVTEQDSKDSTYSLSSTLTLSKADYEKHKVYACEVTHQGLSSPVTKSFNRGECEDQVDPRLIDGK
B7: mAb 0051-(HC-L4a-TF)2;(LC-HPC4)2 (other)
heavy chain-linker-TF: QVQLEQSGAELVRPGVSVKISCKGSGYTFTDYSMHWVKQSHAKSLEWIGVISTYYGDVRYNQKFKGKATMTVDKSSSTAYMALARLTSEDSAIYYCARAPMITTGAWFAYWGQGTLVTVSAASTKGPSVFPLAPCSRSTSESTAALGCLVKDYFPEPVTVSWNSGALTSGVHTFPAVLQSSGLYSLSSVVTVPSSSLGTKTYTCNVDHKPSNTKVDKRV[human IgG4 Fc with S228P (EU numbers) omitted]GSGGGGSGGGGSGGGGSSGTTNTVAAYNLTWKSTNFKTILEWEPKPVNQVYTVQISTKSGDWKSKCFYTTDTECDLTDEIVKDVKQTYLARVFSYPAGNVESTGSAGEPLYENSPEFTPYLETNLGQPTIQSFEQVGTKVNVTVEDERTLVRRNNTFLSLRDVFGKDLIYTLYYWKSSSSGKKTAKTNTNEFLIDVDKGENYCFSVQAVIPSRTVNRKSTDSPVECMGQEKGEFRE
light chain-HPC4: SIVMTQTPKFLLVSAGDRVTITCKASQSVSNDVAWYQQKPGQSPKLLINYASSRYTGIPDRFTGSGYGTDFTFTISTVQAEDLAVYFCQQDYSSPYTFGGGTKLEIERTVAAPSVFIFPPSDEQLKSGTASVVCLLNNFYPREAKVQWKVDNALQSGNSQESVTEQDSKDSTYSLSSTLTLSKADYEKHKVYACEVTHQGLSSPVTKSFNRGECEDQVDPRLIDGK

We go through seven molecules from patent publication US20120178908A1 (Novo Nordisk, published 2012).

In this experiment the target is T1, TLT-1 receptor on the surface of …. The experiment in a line: cell-based or functional assay.
B1: the “FVII-mediated FXa generation % Activity activated plts (n 1)” value is 4% and the “FVIIa-mediated FXa generation % Activity activated plts (n 1)” value is 14%.

For B2, the “FVII-mediated FXa generation % Activity activated plts (n 2)” value came out at 12% and the “FVIIa-mediated FXa generation % Activity activated plts (n 2)” value came to 15%.

As to B3, the “FVII-mediated FXa generation % Activity activated plts (n 2)” value was determined as 2% and the “FVIIa-mediated FXa generation % Activity activated plts (n 1)” value turned out to be 7%.

For the molecule B4, the “FVII-mediated FXa generation % Activity activated plts (n 1)” value was 5%.

Take B5: the “FVII-mediated FXa generation % Activity activated plts (n 1)” value was 3%.

As to B6, the “FVII-mediated FXa generation % Activity activated plts (n 1)” value worked out at 7% and the “FVIIa-mediated FXa generation % Activity activated plts (n 1)” value is 10%.

With B7, the “FVII-mediated FXa generation % Activity activated plts (n 1)” value is 18% and the “FVIIa-mediated FXa generation % Activity activated plts (n 1)” value came out at 15%.
